Assay results reported in PubChem BioAssay AID485344 (National Center for Advancing Translational Sciences (NCATS), 2010).
Among all 340,000 compounds or so, about 6,900 (2%) were called active. No stated cut-off is given here; in the data, active means inhibition above about 30%; inactive means below that, where a call was filed. This is a selection; strong and weak results do not stand in their true shares. Where no call is shown, the source filed none.

molecular target: D(2) dopamine receptor (Homo sapiens) (UniProt P14416); assay: HTS Assay for Allosteric Antagonists of the Human D2 Dopamine Receptor: Primary Screen for Antagonists; conditions: HEK293 TREx D2 cells, calcium flux, dopamine EC80; at 10 µM; stronger effect = higher value; further: 0% is about no effect
UniProt P14416, sequence (P14416 whole entry, looked up): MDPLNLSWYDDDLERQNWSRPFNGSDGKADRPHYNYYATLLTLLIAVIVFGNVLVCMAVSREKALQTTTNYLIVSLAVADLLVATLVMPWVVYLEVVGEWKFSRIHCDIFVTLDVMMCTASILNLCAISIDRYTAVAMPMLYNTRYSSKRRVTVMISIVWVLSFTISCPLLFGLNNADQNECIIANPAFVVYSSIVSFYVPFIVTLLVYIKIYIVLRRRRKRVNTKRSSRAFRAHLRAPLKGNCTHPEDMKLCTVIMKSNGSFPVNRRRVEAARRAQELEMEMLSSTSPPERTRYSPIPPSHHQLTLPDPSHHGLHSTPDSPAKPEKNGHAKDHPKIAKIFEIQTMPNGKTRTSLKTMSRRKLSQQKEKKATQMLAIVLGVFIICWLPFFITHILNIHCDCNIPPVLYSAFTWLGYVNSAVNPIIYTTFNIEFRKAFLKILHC
Method in brief: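 HEK293 T-REx D2 cells, tet-induced, calcium dye no-wash. Cpd pintool add, 180 s kinetic, then EC80 DA, 180 s kinetic. Ca flux read.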

SMILES	inhibition
CC1CCCN(c2csc3ccc(F)cc3c2=O)C1 (stereo not given)	-17.6%
CC1(C)C(=O)N(CC(=O)Nc2ccc(Cl)cc2)c2ccccc21	3.98%
CN1CCc2c(c3ccccc3n2C)C1	active: 61.4%
CCC(C)NC(=O)c1cc2c(Cl)nc3ccc(C)cc3c2s1 (stereo not given)	-11%
CCc1nn2c(=O)cc(COC(=O)c3ccccc3NC(=O)COc3ccccc3C)nc2s1	1.12%
COc1ccc(-c2nn3c(-c4ccc(OC)cc4)nnc3c3ccccc23)cc1	-0.124%
Cc1ccc2c(c1)cc(C(=O)Nc1ccccc1C)n2C	7.46%
CC(CCc1ccccc1)NC(=O)CN1CCc2ccccc2C1 (stereo not given)	active: 67.9%
COc1cc(C2CC(=O)Nc3c2c(=O)[nH]c2nc4ccccc4n32)ccc1O (stereo not given)	10.7%
CCOC(=O)C1CCN(C(c2ccccc2)c2c(O)cc(C)n(Cc3ccco3)c2=O)CC1 (stereo not given)	-1.38%
O=C(Nc1ccc(C(F)(F)F)cc1)C1CCC(CNS(=O)(=O)c2cccc3nsnc23)CC1 (stereo not given)	-5.79%
CCc1c(C)c2ccc3c(c2oc1=O)CN(Cc1ccccc1)CO3	-10.3%
COc1ccc(OCC(=O)Nc2nnc(S(=O)(=O)N3CCCCCC3)s2)cc1	12.9%
Cc1ccc(-n2c(CCC(=O)O)ccc2-c2cccs2)cc1C	-15.9%
O=C(c1ccco1)N(Cc1cccnc1)c1nc2ccc(F)cc2s1	0.443%
CCc1ccc(S(=O)(=O)c2cn(C)c3cc(N4CCCCC4C)c(F)cc3c2=O)cc1 (stereo not given)	-2.92%
Cc1ccc(S(=O)(=O)NCC(c2ccc(N(C)C)cc2)N2CCCC2)cc1 (stereo not given)	2.49%
COc1cc(OC)cc(-c2nc3n(n2)C(c2ccccc2F)C(C(=O)Nc2cccnc2)=C(C)N3)c1 (stereo not given)	0.833%
CCc1ccc(C2C(C(=O)Nc3ccccc3)=C(C)Nc3c(C(=O)Nc4ccc(C)cc4)cnn32)cc1 (stereo not given)	-9.33%
CCOC(=O)Cn1c(=O)oc2cc(S(=O)(=O)N3CCN(c4ccc(Cl)cc4)CC3)ccc21	12%
Cc1cc(C)cc(NC(=O)C2CCCN(c3nnc(C)c4c(C)n(-c5ccccc5)nc34)C2)c1 (stereo not given)	-17.6%
CCCCN1CCC(COC(=O)c2cc(Cl)c(N)c3c2OCCO3)CC1	active: 64.1%
COc1ccc2nc3sc(C(=O)Nc4ccccc4F)cc3cc2c1	4.19%
CCN(CC)S(=O)(=O)c1ccc(NC(=O)[C@H](CSCc2ccccc2)N2Cc3ccccc3C2=O)cc1	-8.9%

SMILES	inhibition
COC(=O)Cn1c(=O)c2c(nc3n2CCN3c2cccc(C)c2)n(C)c1=O	-27.1%
O=C(O)CCC(=O)NNC(=O)CCC(=O)Nc1ccccc1	active: 39.6%
COc1ccc(C(=O)O)cc1Nc1nc2ccc(C)cc2n2cnnc12	6.57%
Cc1cccc(NC(=O)c2sc3nc4n(c(=O)c3c2C)N=C(c2ccc(F)cc2)CS4)c1C	-2.68%
Cc1ccc(N2C(=O)CS(=O)(=O)C23C(=O)N(Cc2cccc(F)c2)c2ccccc23)cc1Cl (stereo not given)	13.9%
O=C(CSc1nc(-c2ccc(Cl)cc2)nc2c1Cc1ccccc1O2)N1CCCCC1	-3.75%
COc1ccc(Cl)cc1NC(=O)c1cc2nc(-c3ccc4c(c3)OCO4)cc(C(F)(F)F)n2n1	-0.37%
COc1cccc(OC(=O)CSc2nnc(-c3ccccc3OC)o2)c1	7.01%
O=S(=O)(NCCc1ccccc1)c1ccc(N2CCCCS2(=O)=O)cc1	-16.5%
COc1ccc(S(=O)(=O)N2CCCCC2)cc1NC(=O)Cc1ccsc1	active: 30.2%
CCN(Cc1nc2ccccc2c(=O)[nH]1)C(=O)c1cccc(S(=O)(=O)N2CCc3ccccc32)c1	active: 47.4%
CCOc1ccc(NS(=O)(=O)c2ccc3[nH]cc(C(=O)NCc4ccco4)c(=O)c3c2)cc1	4.62%
Cc1ccc(NCc2cccn2-c2nnc(N3CCC(C(=O)NCc4ccc(OC(C)C)cc4)CC3)s2)cc1	7.14%
COc1ccccc1N1CCN(S(=O)(=O)c2c(C)sc3ncn(CC(=O)N(C)c4ccc(C(C)C)cc4)c(=O)c23)CC1	-0.442%
CNS(=O)(=O)c1ccc(OC)c(-c2nnc3c4ccccc4c(C)nn23)c1	14.8%
CCOCCOC(=O)c1ccc(NC(=O)/C=C/c2ccc(OC)c(OC)c2)cc1	-14.4%
O=C(CSc1ncc2c(n1)-c1ccccc1N(Cc1ccc(F)cc1)S2(=O)=O)c1ccc(Cl)cc1	18.8%
Cc1ccc(S(=O)(=O)c2cn(C)c3cc(N4CCN(C)CC4)c(F)cc3c2=O)cc1	12.5%
Cc1cccc(C)c1-n1ncc(C(=O)Nc2ccc3c(c2)OCCO3)c1C1CCN(C(=O)OC(C)(C)C)CC1	-2.14%
COc1ccccc1C(=O)Nc1cc2c(cc1N1CCCCC1)n(C)c(=O)n2C	5.05%
COc1ccc(Nc2c(-c3cc(Br)ccc3O)nc3ncccn23)cc1OC	14.5%
COc1ccc(N2CCN(c3cc(C)nc4nc(-c5ccc(C)cc5)nn34)CC2)cc1	6.54%
COc1ccccc1-c1noc(-c2ccc(N3CCN(c4ccccc4)CC3)c([N+](=O)[O-])c2)n1	0.345%
CC1=C(C#N)C(NC(=O)c2cccc(Cl)c2)(C(F)(F)F)C(=O)N1 (stereo not given)	-7.55%

SMILES	inhibition
CC(C)(C)n1nc2c(c1NC(=O)Cc1ccc(F)cc1)CSC2	active: 34.7%
Cc1ccc(Cl)cc1NC(=O)N1CCN(C)c2ncccc21	13.8%
COc1cccc(C(=O)NCC2CCCN(C3CCCCC3)C2)c1OC (stereo not given)	active: 57.2%
CC(C)Oc1ccc(CNC(=O)C2CCN(C(=O)c3sccc3-n3cccc3)CC2)cc1	-4.82%
Oc1cccc(CN2CCCCC2)c1	active: 56.4%
COc1ccccc1CNC(=O)CN1C(=O)CSc2ccc(S(=O)(=O)N3CCCC3)cc21	-11.6%
COC(=O)c1cc2oc3ccccc3c2n1CC(=O)Nc1ccc(OC)c(OC)c1OC	6.97%
Cc1ccc(-c2noc(CNC(=O)c3ccc(C(C)(C)C)cc3)n2)cc1	-4.11%
O=C(C[n+]1ccc2c(c1)nnn2-c1ccccc1)c1ccc(Cl)cc1	active: 35.8%
Cc1nn(C(=O)c2cc3sccc3[nH]2)c(C)c1C	active: 33.6%
COc1cccc(NC(=O)Nc2cc(-c3cn4cccnc4n3)ccc2C)c1	-0.0554%
CCC(Sc1nnc(C)n2c1cc1occc12)C(=O)Nc1ccccc1F (stereo not given)	13.3%
O=C(NCCO)C(=O)Nc1c2c(nn1-c1ccc(F)cc1)CSC2	-2.99%
Cn1c(=O)n(C)c2cc(NS(=O)(=O)c3ccccc3)c(NCc3ccccc3)cc21	-9.27%
CN(C)CCN(Cc1ccco1)S(=O)(=O)c1cc2c(cc1Cl)NC(=O)CO2	-0.485%
O=C(CN1C(=O)c2cccnc2Oc2ccc(Cl)cc21)Nc1ccc(F)cc1	active: 32.7%
COc1ccccc1CCNC(=O)CCc1c(C)c2cc3c(C)coc3c(C)c2oc1=O	-9.93%
CN(C)c1ccc(NC(=O)c2cccc(N3C(=O)C4C5C=CC(C5)C4C3=O)c2)cc1 (stereo not given)	active: 36.1%
O=C(Cn1c(=O)n(Cc2ccco2)c(=O)c2oc3ccccc3c21)Nc1ccc(F)cc1F	10.5%
Cc1cn2c(=O)cc(COc3ccc(NC(=O)c4cccc(F)c4)cc3)nc2s1	15.1%
Cc1nn(CCCC(=O)Nc2ccccc2C(F)(F)F)c(=O)c2c1sc1ccccc12	-1.21%
COc1ccc(CCNCc2c(C(=O)O)c(C)n(Cc3ccccc3C)c2C)c(OC)c1	11.2%
O=C(c1ccco1)N1CCN(Cc2cccc(C(F)(F)F)c2)CC1	active: 77.1%
COc1ccc(S(=O)(=O)N(CC(=O)NCc2ccccc2OC)c2ccc(C)cc2)cc1	-24.7%

SMILES	inhibition
CCOc1ccccc1N(C)C(=O)Cn1cnc2sc(C)c(S(=O)(=O)N3CCC(C)CC3)c2c1=O	-6.89%
Cc1cccc(N2CCN(S(=O)(=O)c3ccc4c(c3)CCCN4C(=O)C3CCC3)CC2)c1C	-6.57%
O=C(Nc1cccc(Cl)c1)c1c(NC(=O)C(F)(F)F)sc2c1CCCC2	1.3%
CC(=O)Nc1cccc(NC(=O)Cn2cnc3c2c(=O)n(C)c(=O)n3C)c1	-1.57%
Cc1nc(N2CCCC2)c2c(C(=O)Nc3cccc(C)c3C)c(C)oc2n1	6.34%
O=C(Nc1ccc(C(=O)OCc2cc(=O)n3nc(C4CC4)sc3n2)cc1)c1ccc(F)cc1	-0.669%
CCN(CC)c1ccc(NC(=O)C(Cc2ccccc2)NS(=O)(=O)c2ccc(Br)s2)c(C)c1 (stereo not given)	-8.71%
COc1ccc2[nH]cc(C(O)CN3CCN(c4ccccc4F)CC3)c2c1 (stereo not given)	active: 33.3%
Cc1ccc(-n2nc3c(=O)n(CC(=O)Nc4ccccc4F)nc(C)c3c2C)c(C)c1	0.53%
COC(=O)c1ccc(Cl)cc1NC(=O)N1CC(C)Oc2ccccc21 (stereo not given)	-13.2%
CCOC(=O)c1ccc(NC(=O)c2cc3cc(C)ccc3n2C)cc1	-8.28%
Cc1ccc(NC(=O)Nc2nnc(N(C)Cc3ccccc3)s2)cc1	11.1%
Cc1cc(NS(=O)(=O)c2ccc(NC(=O)COc3ccc(Cl)cc3)cc2)nc(C)n1	12.6%
Cc1c(Cl)c([N+](=O)[O-])nn1CC(=O)NCc1cccnc1	active: 39.3%
COc1ccc2c(CNCc3ccc(C)o3)c(C(=O)O)n(Cc3ccccc3)c2c1	-17.5%
CCOc1cc(-c2nc(-c3ccc(-c4ccc(C)cc4)nc3OC)no2)cc(OCC)c1OCC	-0.786%
CCC(=O)N(Cc1ccco1)Cc1cc2cccc(C)c2n2nnnc12	active: 34%
COc1ccc(Cl)cc1NC(=O)Cn1c2ncccc2c(=O)n1-c1ccc(C)c(C)c1	14.2%
Cc1cccc(CCNC(=O)c2cc3ccccn3n2)c1	3.93%
Cc1cc(C)cc(N(CC(=O)Nc2cccc(C)c2C)S(=O)(=O)c2c(C)[nH]c(=O)[nH]c2=O)c1	16.4%
COc1ccc(C2C=C(c3ccccc3)Nc3nc(NC(=O)c4ccc(C)cc4)nn32)cc1 (stereo not given)	2.12%
CCOC(=O)c1c(C)oc2ccc(N(C(=O)Oc3ccccc3)S(=O)(=O)c3ccccc3)cc12	6.02%
CCN1CCN(C(c2ccc(OC)cc2)c2c(O)cc(C)n(CCOC)c2=O)CC1 (stereo not given)	6.21%
